# From the supplement of paper PMC10126150
# Values marked as one replicate rest on one cluster of the flow cell; about a third of the high ones do not repeat.
# System: ATP
# Experiment: switch fluorescence ratio, 500 uM ATP over buffer (Cy3 cluster intensity, sum of 5 cycles each) (fold (ratio)); higher = stronger signal-on switching upon ATP binding; sequences stand for … in TCGTCGGCAGCGTCAGATGTGTATAAGAGACAGTTTTTTTTTTTTTTTTTTTTTTTTT…TC
# Conditions: aptamer strand: ATP DNA aptamer (quencher-CACCTGGGGGAGTATTGCGGAGGAAGG + anchor), 100 nM annealed; ATP concentration: 500 uM; one replicate
# Summary of the method: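 Between each of five buffer/ATP cycles, the flow-cell was stripped with NaOH and re-annealed. Each cycle imaged Cy3-labelled switching-strand clusters, annealed to 100 nM quencher-labelled ATP aptamer on a modified Illumina MiSeq flow-cell, first in selection buffer and then after 15 min with 500 uM ATP at 22 °C. The fluorescence ratio is summed target-cycle over summed buffer-cycle Cy3 intensity per cluster, averaged per switch-domain sequence, with clusters outside 100-1000 RFU excluded.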
# 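Further: ATP exposure 15 min at 22 °C before imaging.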
sequence,measurement,value
AGTCTAGCCC,switch fluorescence ratio,1.01
GGGCTCGGCT,switch fluorescence ratio,0.984
GCCCTGGAAG,switch fluorescence ratio,1.03
ATACGGTAAC,switch fluorescence ratio,1.15
GACGCCTTGA,switch fluorescence ratio,1.08
AACAGATGCT,switch fluorescence ratio,0.99
ATGTGCTCAT,switch fluorescence ratio,1.04
CACCATTCA,switch fluorescence ratio,1.03
ACGCCTTAGA,switch fluorescence ratio,1.02
TGCAATAACA,switch fluorescence ratio,1.11
TGCTTGCCAT,switch fluorescence ratio,0.985
GTGGGGAAAT,switch fluorescence ratio,0.984
ATTTTTAATA,switch fluorescence ratio,1.01
GTATTTTAAG,switch fluorescence ratio,1
TGAGGTTTA,switch fluorescence ratio,0.948
GAACAGCCGT,switch fluorescence ratio,1.13
TTGCTGAGGT,switch fluorescence ratio,1
TAAATTCAAC,switch fluorescence ratio,0.937
TCGCTCCATA,switch fluorescence ratio,1.03
GCTCTCATTA,switch fluorescence ratio,1
GAGATGTTAC,switch fluorescence ratio,0.981
TGCTTAGAGA,switch fluorescence ratio,0.954
GCCTCACAAC,switch fluorescence ratio,1.16
GTCACTAGTT,switch fluorescence ratio,1
AGCCTGATGT,switch fluorescence ratio,0.973
AGTTGCCAG,switch fluorescence ratio,1.04
GGGTAAAATA,switch fluorescence ratio,0.991
GACAGCTCT,switch fluorescence ratio,0.995
GATACGGTGT,switch fluorescence ratio,1.02
TGTCATGAT,switch fluorescence ratio,0.982
TACATTCAGT,switch fluorescence ratio,1.05
TGTCAGGCA,switch fluorescence ratio,1.01
ACCAGGATAC,switch fluorescence ratio,1.34
AATGTCCCCG,switch fluorescence ratio,1.06
ACCTCGAAA,switch fluorescence ratio,1.24
ATGCGGCCAG,switch fluorescence ratio,1.03
CTTGCGGAAT,switch fluorescence ratio,1.49
TGAGGGTTAT,switch fluorescence ratio,0.974
TTAACGGCAC,switch fluorescence ratio,1.85
CCTCAGAA,switch fluorescence ratio,1.39
GGTGTCTTGA,switch fluorescence ratio,1.01
CCTATCGTGG,switch fluorescence ratio,1.05
CTACGGTGGG,switch fluorescence ratio,1.01
ACATGCAGC,switch fluorescence ratio,1.02
CCGATTCAGA,switch fluorescence ratio,1.35
CGTCTTCTAG,switch fluorescence ratio,0.935
CTCATCCCA,switch fluorescence ratio,1.07
TTAACTCGCC,switch fluorescence ratio,1.03
TGATTAAGCT,switch fluorescence ratio,1.01
GCCAGCACTC,switch fluorescence ratio,1.28
TTACCGTTT,switch fluorescence ratio,1.07
AATAGAGAGG,switch fluorescence ratio,0.976
TGTCATAACG,switch fluorescence ratio,1.03
TTATGCGATC,switch fluorescence ratio,1.09
AAGAATTGGT,switch fluorescence ratio,1.01
TGGATTTACG,switch fluorescence ratio,1.02
ACCGAGGATT,switch fluorescence ratio,1.04
GCCCCAGCTT,switch fluorescence ratio,1.05
TCTAAGGACT,switch fluorescence ratio,1.03
AGGCTCTTTA,switch fluorescence ratio,0.964
ACAGGCCTGG,switch fluorescence ratio,1.04
GGGGTGTTC,switch fluorescence ratio,1.03
TGGGTATCAT,switch fluorescence ratio,0.994
CAGCAATTTG,switch fluorescence ratio,1.26
TATATGACCG,switch fluorescence ratio,1.02
TTAATCTCAG,switch fluorescence ratio,0.985
AGTACCT,switch fluorescence ratio,1.27
GTAAGCCTTT,switch fluorescence ratio,0.985
CAGTTCCCAT,switch fluorescence ratio,1.04
CCGGAAATAA,switch fluorescence ratio,1.04
TCCCGCCGGG,switch fluorescence ratio,1.6
GGGTCGGCTT,switch fluorescence ratio,0.953
CATGTTTCCG,switch fluorescence ratio,1.01
ACGCATGAAA,switch fluorescence ratio,1.03
GTTCCGTAAA,switch fluorescence ratio,1.38
GTCACTCGGA,switch fluorescence ratio,0.986
GCTGTCGGAT,switch fluorescence ratio,1
GACTATACTA,switch fluorescence ratio,1.23
GGTTCGGGAG,switch fluorescence ratio,1.04
TGGCTCAGGT,switch fluorescence ratio,1.08
TTTTGGTCT,switch fluorescence ratio,0.972
GACGACACTA,switch fluorescence ratio,1.66
TGTGATGGCG,switch fluorescence ratio,1.02
AATGACTAGG,switch fluorescence ratio,0.985
ATACTTGCAT,switch fluorescence ratio,1
GGTATCAGCA,switch fluorescence ratio,1.01
CAGACATTCA,switch fluorescence ratio,1.03
CAACTCAGCG,switch fluorescence ratio,1.05
AAATCAGTCG,switch fluorescence ratio,1.03
CAGAGCTCGA,switch fluorescence ratio,0.973
CACAGAACAA,switch fluorescence ratio,1.03
GATGCTATAT,switch fluorescence ratio,1.52
TCTAAGGTGT,switch fluorescence ratio,1.29
GTATTTGTGA,switch fluorescence ratio,1
GTCGGGTGGG,switch fluorescence ratio,0.968
GGGGTTTCGA,switch fluorescence ratio,0.998
GGGCAGATAG,switch fluorescence ratio,1.06
CGTGGAGATG,switch fluorescence ratio,1.07
CCCCTATG,switch fluorescence ratio,1.09
TTGTGACTGT,switch fluorescence ratio,0.979
TGGCTACCTG,switch fluorescence ratio,1
CCGTTCATCA,switch fluorescence ratio,1.01
GCTCCTTGC,switch fluorescence ratio,1.16
CGGCAAGTCG,switch fluorescence ratio,1
TTAATTTTCA,switch fluorescence ratio,1.02
GACGCGGGTG,switch fluorescence ratio,1
TTGTATAAAT,switch fluorescence ratio,0.964
TGGTCTAAGT,switch fluorescence ratio,1
ACTGGCAGGA,switch fluorescence ratio,1.03
TCGGACGCGT,switch fluorescence ratio,1.01
CCATAAACGT,switch fluorescence ratio,1.01
CCAGTCTTTG,switch fluorescence ratio,1.02
TGACTGAATG,switch fluorescence ratio,0.989
AAGGCTGTCG,switch fluorescence ratio,0.968
CTTAATTTGG,switch fluorescence ratio,0.98
TTAAGCCTTC,switch fluorescence ratio,1.3
CCCGCCAAGA,switch fluorescence ratio,3.06
AGGACATTAA,switch fluorescence ratio,1.01
AGCTTTCCTT,switch fluorescence ratio,1.1
GGCCTGTGCG,switch fluorescence ratio,0.999
CGATTTGCGG,switch fluorescence ratio,0.998
GCACTTGTTA,switch fluorescence ratio,0.965
ACAGTAATCT,switch fluorescence ratio,1.12
ATGAACGGAG,switch fluorescence ratio,1.03
CTGAGAGCCC,switch fluorescence ratio,1.07
CGAATGGGTC,switch fluorescence ratio,0.947
GTGCGTATGA,switch fluorescence ratio,0.983
TTAATGGCAC,switch fluorescence ratio,1.07
CTTAAACCGA,switch fluorescence ratio,1.15
CTTAAACACC,switch fluorescence ratio,1.08
TCCATCATCA,switch fluorescence ratio,0.987
GCAGACGAAC,switch fluorescence ratio,1.45
ATTTAATCT,switch fluorescence ratio,0.964
AGGTCCCTTC,switch fluorescence ratio,1.04
GCTCCTGTTG,switch fluorescence ratio,0.977
TCATAAGGTC,switch fluorescence ratio,1.05
AACGGATATT,switch fluorescence ratio,0.947
ATGGGACCAT,switch fluorescence ratio,1.02
GACGGAAATT,switch fluorescence ratio,0.996
TATTGTTTAA,switch fluorescence ratio,0.991
ATGCCGATG,switch fluorescence ratio,1.01
TTTTCCGGAT,switch fluorescence ratio,1.39
AATAACGCGG,switch fluorescence ratio,0.964
GCTTGAGGTG,switch fluorescence ratio,1.04
ACATCAACGG,switch fluorescence ratio,1.06
AGGGCCATAT,switch fluorescence ratio,1.03
CCTATGTGTT,switch fluorescence ratio,1.03
GTGGCCGGGG,switch fluorescence ratio,0.926
CATAACCAGG,switch fluorescence ratio,1.43
CGACCTCTGC,switch fluorescence ratio,1.75
TATTTGAGGT,switch fluorescence ratio,1.01
AAGGTGAGGC,switch fluorescence ratio,0.842
CCTTGAATC,switch fluorescence ratio,1.03
TTAATATATG,switch fluorescence ratio,1.02
